Measured values as given in publication PMC12040169 (PLOS Biology, 2025).
Some of the results follow.

Tested on: T1, C. trachomatis L2/434/Bu expressing GFP (CTL2-GFP)
T1 construct: L2/434/Bu GFP intracellular growth in HeLa cells
Design: species or system HeLa; C. trachomatis total inclusion area by high-content imaging, normalised to DMSO
Conditions: total inclusion area; 28.5 h, 10 µM; inhibitor
Summary of the method: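 Bulk GFP and resorufin signals were read first. Wells were then fixed, stained with Hoechst and imaged to detect GFP inclusions and host nuclei. MICs followed the previously described calculation.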

SMILES	% of control remaining
COc1cccc2c1CCN=C2C[C@H]1CN(C(=O)C2CC2)CC[C@H]1CC(=O)O [CBK289164]	97.0676
CSc1nc(NC(=O)c2cccs2)cc(N2CCNCC2)n1 [CBK050315T]	93.1478
Cc1cccc(Nc2nc(C)cc3n[nH]c(=O)n23)c1 [CBK288477]	22.0347
Cc1nccn1CC1CCCN(Cc2nc3ccccc3n2C)C1 (stereo not drawn) [CBK281975]	96.6402
Cn1c(CN2CCN(S(C)(=O)=O)CC2)nc2cc([N+](=O)[O-])ccc21 [CBK268362]	98.7976
O=S(=O)(c1cccc(S(=O)(=O)N2CCOCC2)c1)c1ccc(Cl)c(S(=O)(=O)N2CCOCC2)c1 [CBK261260]	98.6018
CC1CCC(C(=O)Nc2ccc(C(=O)O)cc2)CC1 (stereo not drawn) [CBK287234]	93.5434
COc1ccc([C@@]2(O)CC[C@@H]3CN(C(=O)C4CCCC4)C[C@@H]32)cc1 [CBK285260]	90.7741
O=C(CNC(=O)C1CCCCC1)NNC(=O)c1ccccc1Br [CBK267828]	112.074
CCn1nc(C2CCCC2)nc1-c1cnc2ccnn2c1C [CBK306626]	101.894
COC(=O)c1c(NC(=O)CC2Sc3ccccc3NC2=O)sc(C)c1C (stereo not drawn) [CBK264429]	123.562
O=C1COc2ccccc2C/C=C/CC2(CCN(C(=O)Cc3cccnc3)CC2)C(=O)NCCN1 [CBK292153]	84.706
O=C(CSc1nnc(-c2cccc(Br)c2)o1)Nc1cccc([N+](=O)[O-])c1 [CBK264212]	92.2104
CC12CC(NC(=O)N1c1ccc(C(=O)O)cc1)c1ccccc1O2 (stereo not drawn) [CBK287226]	85.2084
COc1cccc(-c2ccc3c(c2)[nH]c(=O)n3C2CCN(C(=O)c3ccc(C)c(OC)c3)CC2)c1 [CBK153141]	92.0125
Cc1cc(C)cc(N(C(C)C(=O)Nc2ccccc2-c2ccccc2)S(C)(=O)=O)c1 (stereo not drawn) [CBK268770]	99.7367
COc1ccc2[nH]c(=O)c(CN(CCN(C)C)C(=S)Nc3ccc(F)cc3)cc2c1 [CBK135011]	61.9528
O=C(NCCc1c[nH]c2ccc(Cl)cc12)c1ccc(Cl)cc1Cl [CBK159750]	12.7942
CC1CCCCC1NC(=O)Cn1ncn2c(cc3ccsc32)c1=O (stereo not drawn) [CBK284196]	87.7524
O=C1c2ccccc2C(=O)N1CCc1nn2c(-c3cccnc3)nnc2s1 [CBK269793]	88.6052
CC(C)Oc1cccc(C(=O)Nc2ccc(N3CCN(C(=O)C(C)(C)C)CC3)cc2)c1 [CBK270280]	70.3178
